Laboratory results published in PMC4336329 (PLoS ONE, 2015).
Among all 310,000 compounds or so, about 2,200 (0.71%) showed an effect of 50% or more. The effect is printed as a negative number. This is one part of the list.

target: human ether-à-go-go-related gene (hERG) potassium channel (human, UniProt Q12809); assay: primary screen, population patch clamp on CHO cells stably expressing hERG
Sequence (Q12809 whole entry, looked up): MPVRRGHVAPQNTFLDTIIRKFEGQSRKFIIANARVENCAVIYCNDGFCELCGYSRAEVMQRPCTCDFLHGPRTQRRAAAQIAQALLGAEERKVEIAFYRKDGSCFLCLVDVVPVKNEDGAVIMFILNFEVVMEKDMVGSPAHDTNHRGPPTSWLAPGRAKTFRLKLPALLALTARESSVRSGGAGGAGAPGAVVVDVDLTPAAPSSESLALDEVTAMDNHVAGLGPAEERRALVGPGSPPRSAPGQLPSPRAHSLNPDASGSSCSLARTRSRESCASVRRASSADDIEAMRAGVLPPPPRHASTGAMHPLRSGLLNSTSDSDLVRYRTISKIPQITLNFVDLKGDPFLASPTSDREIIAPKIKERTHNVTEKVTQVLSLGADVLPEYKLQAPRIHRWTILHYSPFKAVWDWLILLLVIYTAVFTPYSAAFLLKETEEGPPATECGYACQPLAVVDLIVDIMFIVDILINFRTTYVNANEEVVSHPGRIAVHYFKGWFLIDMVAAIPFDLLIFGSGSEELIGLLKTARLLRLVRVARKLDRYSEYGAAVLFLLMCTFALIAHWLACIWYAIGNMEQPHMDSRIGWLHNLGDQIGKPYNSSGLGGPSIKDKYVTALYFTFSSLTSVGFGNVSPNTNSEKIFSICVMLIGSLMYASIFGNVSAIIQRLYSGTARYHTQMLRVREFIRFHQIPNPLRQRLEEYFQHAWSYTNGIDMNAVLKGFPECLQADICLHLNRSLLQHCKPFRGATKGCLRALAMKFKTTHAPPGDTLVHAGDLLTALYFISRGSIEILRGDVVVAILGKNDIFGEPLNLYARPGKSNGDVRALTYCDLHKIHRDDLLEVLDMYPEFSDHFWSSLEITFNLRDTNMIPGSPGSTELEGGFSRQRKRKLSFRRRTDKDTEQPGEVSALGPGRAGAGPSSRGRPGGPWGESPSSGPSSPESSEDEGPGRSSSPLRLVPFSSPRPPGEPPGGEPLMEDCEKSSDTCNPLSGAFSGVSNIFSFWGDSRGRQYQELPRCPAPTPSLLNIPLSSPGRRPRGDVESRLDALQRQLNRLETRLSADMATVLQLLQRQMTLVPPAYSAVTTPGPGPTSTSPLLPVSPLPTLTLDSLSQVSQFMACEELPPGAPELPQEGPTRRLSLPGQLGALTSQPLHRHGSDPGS

Compound	hERG current change (%, negative = inhibition) at 1uM [%]
CCOc1ccc(CN2CCNC(=O)C2CC(=O)NCCCn2ccnc2)cc1 (stereo not drawn)	6.45
COCCNC(=O)C(C)N(c1ccc(Oc2ccccc2)cc1)S(C)(=O)=O (stereo not drawn)	9.25
CC(=O)Nc1cc(C(=O)N2CCCC2)ccc1S(=O)(=O)c1ccc(C)cc1	6.7
Cc1nc2ccccc2c(=O)n1NC(=O)c1ccc(Cl)cc1	4.96
CC(/C=N/n1c(-c2cc(C)[nH]n2)n[nH]c1=S)=C\c1ccco1	6.84
CN(Cc1ccccc1)C(=O)CN1CCN(C(c2ccccc2)c2ccccc2)CC1	4.62
CCN(C(=O)COC(=O)c1cnc(C)cn1)C1CCS(=O)(=O)C1 (stereo not drawn)	-7.09
CC12C(=O)N(CCC(=O)O)C(=O)C1C1C=CC2C1 (stereo not drawn)	8.26
CCC1CN(C(=O)N2CCC(C(=O)NCCc3ccccc3)CC2)c2ccccc2O1 (stereo not drawn)	8.85
O/N=C(/CCc1ccccc1)C1(O)CCCCC1	11.7
Cc1nn(-c2ccccc2)c2c1c(C)c(CCC(=O)N1CCOCC1)c(=O)n2C	-0.489
COc1cc(C(=O)NCC2CCCO2)cc(Br)c1OCc1ccccc1 (stereo not drawn)	4.96
COCN(C#N)c1nc(N(C)C)nc(N(C)C)n1	11.2
COc1cccc(/C=N/NC(=O)CN(C2=NS(=O)(=O)c3ccccc32)c2ccccc2)c1	5.25
C/C(=N\NC(N)=S)c1ccccc1	3.89
CCN(CC)CCCNC(=O)c1oc2ccc3c(c2c1C)C(O)CC(C)(C)O3 (stereo not drawn)	8.18
Cc1onc(-c2ccccc2)c1C(=O)N(C)CCc1ccccn1	5.97
CC(=O)c1ccc(-c2ccc([C@H]3[C@H]4C=CC[C@@H](C)[C@@H]4C(=O)N3Cc3ccccc3)c(F)c2)cc1	11.6
CCCC(=O)Nc1nnc(S(=O)(=O)N(CC)c2ccc(OC)cc2)s1	7.27
Cn1cnnc1SCC(=O)Nc1ccc2nc(SCc3ccccc3F)sc2c1	13.8
COC(=O)c1ccc(C23CC4(C2)[C@H](CN(Cc2cccnc2)[C@@H]4c2ccccc2)C3c2ccccc2)cc1 (stereo partly drawn)	13
COc1ccc(OC)c(NS(=O)(=O)c2ccc(NC(=O)C3COc4ccccc4O3)cc2)c1 (stereo not drawn)	8.14
CCC1(C)NC(C(=O)O)Cc2c1[nH]c1ccccc21 (stereo not drawn)	13.3
CC(=O)C(Sc1nnnn1-c1ccc(O)cc1)c1ccccc1 (stereo not drawn)	2.98
